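Tested at 5 concentrations; 48 h exposure; 96-well plates; endpoints linearly interpolated, else capped at highest concentration. The concentration for full growth arrest is given as TGI.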 The source holds more than one record for some entries. This list holds those alone. An entry can have further records. For some assays here: Records of one sample usually come from different ranges of test concentrations, which the source does not state; a value can be the end of its range. For some assays here: The records of an entry repeat one measurement across runs, samples, wells, individuals or studies. A tag in brackets gives the origin of a value. A, B and so on number the origins entry by entry.
Tested on: MDA-MB-468 breast
Assay: growth of human tumour cells (NCI), 48 h

COc1cc(Nc2nc3ccccc3nc2NS(=O)(=O)c2ccc(NC(=O)c3ccc(C)c(OC)c3)cc2)cc(OC)c1
TGI: 34.5 µM [sample A, 1 test] and 47.6 µM [sample B, 1 test] and 3.15 µM [sample C, mean of 2 tests]

CC(=O)O[C@H]1C(=O)[C@@]2(C)[C@H]([C@H](OC(=O)c3ccccc3)[C@]3(O)C[C@H](OC(=O)[C@H](O)[C@@H](NC(=O)c4ccccc4)c4ccccc4)C(C)=C1C3(C)C)[C@]1(OC(C)=O)CO[C@@H]1C[C@@H]2O
TGI: 49.5 nM [1 test] and 289 nM [mean of 2 tests] and 13.8 µM [mean of 3 tests] and 1.4 µM [mean of 5 tests]

From PubChem BioAssay (NCI)
